Measured values as given in publication PMC4430315.
Read-outs that look alike come from different tables or passages of the source. No constants are given. Whether binding was seen depends on the method and setting. Binding seen in cells or lysates may run through a third protein. Some results given as binding are weak or reduced against the parent protein; the word gives no strength. For some assays here: Where a sequence is shown, tags or fusion partners need not be part of it. One block for each molecule: values may come before it.

Sequences of proteins named here, by UniProt entry; tags and fusion partners are left off.
UniProt Q13619: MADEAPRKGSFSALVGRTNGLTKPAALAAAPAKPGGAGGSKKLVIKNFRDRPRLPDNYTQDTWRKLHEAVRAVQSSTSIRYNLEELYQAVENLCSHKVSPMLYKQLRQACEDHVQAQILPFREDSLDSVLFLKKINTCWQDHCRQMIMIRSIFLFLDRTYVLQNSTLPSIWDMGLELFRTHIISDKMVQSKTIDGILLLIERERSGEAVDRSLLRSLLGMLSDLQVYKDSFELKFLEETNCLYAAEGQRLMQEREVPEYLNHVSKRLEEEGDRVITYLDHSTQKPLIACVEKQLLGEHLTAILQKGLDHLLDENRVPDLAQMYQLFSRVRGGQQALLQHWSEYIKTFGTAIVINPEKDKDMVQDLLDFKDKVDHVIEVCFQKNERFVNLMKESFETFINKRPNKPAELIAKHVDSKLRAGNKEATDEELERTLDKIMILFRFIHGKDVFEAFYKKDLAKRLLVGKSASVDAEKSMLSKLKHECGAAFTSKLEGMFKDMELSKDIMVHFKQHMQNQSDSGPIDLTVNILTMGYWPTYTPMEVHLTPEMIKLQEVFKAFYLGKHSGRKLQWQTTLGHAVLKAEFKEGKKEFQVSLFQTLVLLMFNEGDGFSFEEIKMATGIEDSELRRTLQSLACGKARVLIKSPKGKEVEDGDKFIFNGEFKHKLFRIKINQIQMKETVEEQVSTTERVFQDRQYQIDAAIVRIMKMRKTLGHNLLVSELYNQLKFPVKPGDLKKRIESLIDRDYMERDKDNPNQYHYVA
UniProt Q13620: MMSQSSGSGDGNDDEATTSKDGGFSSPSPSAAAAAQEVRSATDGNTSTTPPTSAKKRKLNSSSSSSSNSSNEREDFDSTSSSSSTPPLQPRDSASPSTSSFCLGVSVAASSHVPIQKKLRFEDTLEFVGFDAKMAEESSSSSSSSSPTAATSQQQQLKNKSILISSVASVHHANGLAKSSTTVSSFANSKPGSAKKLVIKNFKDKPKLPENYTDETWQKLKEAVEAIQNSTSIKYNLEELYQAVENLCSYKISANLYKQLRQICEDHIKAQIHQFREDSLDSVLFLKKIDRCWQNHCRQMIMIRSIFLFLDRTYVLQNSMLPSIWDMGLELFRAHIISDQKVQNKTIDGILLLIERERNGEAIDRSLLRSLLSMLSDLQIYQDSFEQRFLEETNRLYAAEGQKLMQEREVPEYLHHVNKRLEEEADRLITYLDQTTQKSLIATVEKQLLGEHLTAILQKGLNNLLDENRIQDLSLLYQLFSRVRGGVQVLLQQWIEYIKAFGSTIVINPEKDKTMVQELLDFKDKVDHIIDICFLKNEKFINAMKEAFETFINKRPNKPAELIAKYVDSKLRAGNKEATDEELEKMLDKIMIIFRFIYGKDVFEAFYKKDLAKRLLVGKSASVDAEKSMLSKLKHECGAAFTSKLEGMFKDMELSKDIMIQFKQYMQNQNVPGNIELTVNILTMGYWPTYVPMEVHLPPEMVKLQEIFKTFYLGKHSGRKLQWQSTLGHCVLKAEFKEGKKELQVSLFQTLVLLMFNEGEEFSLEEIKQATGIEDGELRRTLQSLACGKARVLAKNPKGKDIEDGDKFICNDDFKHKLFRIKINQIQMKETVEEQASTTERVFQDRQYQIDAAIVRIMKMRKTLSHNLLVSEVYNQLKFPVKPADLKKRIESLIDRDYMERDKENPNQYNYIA
UniProt Q16531: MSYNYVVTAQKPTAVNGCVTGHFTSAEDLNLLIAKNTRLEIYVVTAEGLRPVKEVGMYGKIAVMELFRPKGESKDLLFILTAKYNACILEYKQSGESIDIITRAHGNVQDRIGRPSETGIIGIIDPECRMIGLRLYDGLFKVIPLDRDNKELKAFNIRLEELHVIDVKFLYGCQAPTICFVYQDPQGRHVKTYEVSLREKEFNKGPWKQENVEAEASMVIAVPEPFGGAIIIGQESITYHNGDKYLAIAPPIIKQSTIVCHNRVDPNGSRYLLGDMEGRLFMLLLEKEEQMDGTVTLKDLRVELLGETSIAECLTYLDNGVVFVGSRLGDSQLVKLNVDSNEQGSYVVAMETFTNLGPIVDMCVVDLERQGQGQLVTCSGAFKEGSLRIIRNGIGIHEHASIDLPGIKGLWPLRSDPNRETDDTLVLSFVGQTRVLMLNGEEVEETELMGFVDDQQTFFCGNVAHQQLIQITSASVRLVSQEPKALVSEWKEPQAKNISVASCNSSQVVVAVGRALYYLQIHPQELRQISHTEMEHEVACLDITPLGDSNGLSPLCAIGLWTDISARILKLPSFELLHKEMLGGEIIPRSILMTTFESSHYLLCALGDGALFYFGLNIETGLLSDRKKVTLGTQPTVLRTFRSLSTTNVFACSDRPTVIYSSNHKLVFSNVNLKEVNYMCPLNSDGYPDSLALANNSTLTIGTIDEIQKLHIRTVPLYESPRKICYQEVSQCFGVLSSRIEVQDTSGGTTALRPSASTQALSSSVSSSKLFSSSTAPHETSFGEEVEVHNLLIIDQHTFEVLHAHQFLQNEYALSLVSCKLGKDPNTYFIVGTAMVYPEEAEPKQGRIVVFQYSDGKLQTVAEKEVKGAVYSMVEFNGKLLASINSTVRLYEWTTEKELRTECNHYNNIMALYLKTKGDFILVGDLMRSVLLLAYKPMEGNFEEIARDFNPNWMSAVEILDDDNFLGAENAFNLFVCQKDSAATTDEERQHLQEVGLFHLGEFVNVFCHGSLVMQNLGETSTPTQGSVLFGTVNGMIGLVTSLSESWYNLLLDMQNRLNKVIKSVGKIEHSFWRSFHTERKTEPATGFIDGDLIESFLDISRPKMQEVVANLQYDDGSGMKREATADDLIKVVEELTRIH

Tests used:
[1] = molecular target: T1, FLAG-FBXO44 (F-box protein 44, full length) (UniProt Q9H4M3); assay: co-IP; lysates of transiently transfected HEK-293 cells (HEK-293T in Fig 4A); 1 mg lysate, 1 μg antibody and Protein G-agarose, 2 h at 4°C; lysis buffer 20 mM Tris-HCl pH 7.4, 150 mM NaCl, 2 mM EDTA, 5% glycerol, 1% Triton-X100; Western blot
T1 sequence: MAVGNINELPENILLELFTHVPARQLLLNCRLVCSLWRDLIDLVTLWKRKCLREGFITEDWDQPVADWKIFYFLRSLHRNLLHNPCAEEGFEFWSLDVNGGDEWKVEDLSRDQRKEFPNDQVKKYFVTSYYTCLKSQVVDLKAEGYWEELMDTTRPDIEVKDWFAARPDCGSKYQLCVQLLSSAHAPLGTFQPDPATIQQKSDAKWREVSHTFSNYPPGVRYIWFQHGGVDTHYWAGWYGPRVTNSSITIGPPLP

[2] = molecular target: T2, RGS2-HA (Regulator of G Protein Signaling 2, HA-tagged) (UniProt P41220); assay: as above
T2 sequence: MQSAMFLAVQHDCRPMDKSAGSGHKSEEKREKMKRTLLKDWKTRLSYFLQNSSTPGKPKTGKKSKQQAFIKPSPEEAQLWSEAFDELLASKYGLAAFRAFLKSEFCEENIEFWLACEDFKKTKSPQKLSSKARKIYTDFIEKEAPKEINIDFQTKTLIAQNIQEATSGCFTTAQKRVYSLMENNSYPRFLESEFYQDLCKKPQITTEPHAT

[3] = molecular target: T2, RGS2-HA (Regulator of G Protein Signaling 2, HA-tagged); assay: as above; remark: listed apart in the source
[4] = molecular target: T1, FLAG-FBXO44 (F-box protein 44, full length); assay: as above; remark: listed apart in the source
[5] = molecular target: T3, FBXO44, endogenous in mouse heart (mouse (endogenous in heart tissue)) (UniProt Q8BK26); assay: co-IP; endogenous proteins from C57/Bl6 mouse whole heart tissue lysate; Protein G-agarose, 2 h at 4°C; Protein A-HRP used for detection of endogenous FBXO44
T3 sequence: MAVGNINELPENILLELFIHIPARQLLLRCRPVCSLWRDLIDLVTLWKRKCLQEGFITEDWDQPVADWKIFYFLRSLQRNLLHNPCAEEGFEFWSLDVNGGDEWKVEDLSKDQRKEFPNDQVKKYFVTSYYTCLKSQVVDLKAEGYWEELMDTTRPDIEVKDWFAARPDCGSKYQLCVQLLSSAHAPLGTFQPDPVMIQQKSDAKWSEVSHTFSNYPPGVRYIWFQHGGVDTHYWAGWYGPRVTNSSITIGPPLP

Molecule: cullin 4A (CUL4A), endogenous (from UniProt Q13619 1-759) (other; other documents disagree on this pair)
binding [1]: no binding

Molecule: cullin 4B (CUL4B), endogenous (from UniProt Q13620 1-913)
binding [1]: binds

B2: RGS2-HA (Regulator of G Protein Signaling 2, HA-tagged) (protein, UniProt P41220 1-211)
chain: MQSAMFLAVQHDCRPMDKSAGSGHKSEEKREKMKRTLLKDWKTRLSYFLQNSSTPGKPKTGKKSKQQAFIKPSPEEAQLWSEAFDELLASKYGLAAFRAFLKSEFCEENIEFWLACEDFKKTKSPQKLSSKARKIYTDFIEKEAPKEINIDFQTKTLIAQNIQEATSGCFTTAQKRVYSLMENNSYPRFLESEFYQDLCKKPQITTEPHAT
binding [4]: binds

Continued, values first:

binding [1]: binds | binding [2]: binds
Molecule: DNA damage binding protein 1 (DDB1) (from UniProt Q16531 1-1140)

binding [2]: no binding
Molecule: Skp1 (from UniProt P63208 1-163)

binding [3]: binds
B1: FLAG-FBXO44 (F-box protein 44, full length) (protein, UniProt Q9H4M3 1-255)
chain: MAVGNINELPENILLELFTHVPARQLLLNCRLVCSLWRDLIDLVTLWKRKCLREGFITEDWDQPVADWKIFYFLRSLHRNLLHNPCAEEGFEFWSLDVNGGDEWKVEDLSRDQRKEFPNDQVKKYFVTSYYTCLKSQVVDLKAEGYWEELMDTTRPDIEVKDWFAARPDCGSKYQLCVQLLSSAHAPLGTFQPDPATIQQKSDAKWREVSHTFSNYPPGVRYIWFQHGGVDTHYWAGWYGPRVTNSSITIGPPLP

binding [5]: binds
B3: RGS2, endogenous in mouse heart (protein, UniProt O08849 1-211)
chain: MQSAMFLAVQHDCVPMDKSAGNGPKVEEKREKMKRTLLKDWKTRLSYFLQNSSAPGKPKTGKKSKQQTFIKPSPEEAQLWAEAFDELLASKYGLAAFRAFLKSEFCEENIEFWLACEDFKKTKSPQKLSSKARKIYTDFIEKEAPKEINIDFQTKSLIAQNIQEATSGCFTTAQKRVYSLMENNSYPRFLESEFYQDLCKKPQITTEPHAT
